Results as given in PubChem BioAssay AID651820 (National Center for Advancing Translational Sciences (NCATS), 2012).
The whole screen tested about 340,000 compounds, of which about 12,000 (3.5%) were called active. Inconclusive means that the source gave no clear call. Such entries were picked first, then a sample of the others. Calls come from the whole dose curve; as a rule, active = well fitted inhibition curve with a large enough effect; inconclusive = small, poorly fitted or top-dose-only effect, or another doubt; inactive = no such curve, though single readings can be large or run the other way. No potency is given beside an inconclusive call; the fits are too rough.

assay: qHTS Assay for Inhibitors of Hepatitis C Virus (HCV); conditions: Huh7.5.1 HCVcc-Cre (HCVcc is cell-culture hepatitis C virus) infection, luciferase reporter, 44 h; series mostly up to 41.8 µM
Outline: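 Antiviral activity was scored by luciferase reporter output from cells infected with HCVcc-Cre (~0.5 moi) in presence of compound, 44 h infection period, cells seeded 1,000/well 4 h prior.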
Potency is the fitted concentration of half-maximal effect; tags give direction and shape of the fitted curve.

Row | Structure (SMILES) | Potency
1 | Cc1ccc(Sc2c([N+](=O)[O-])ncn2C)cc1 | inconclusive [inhibitor, single point]
2 | O=C(NCc1ccccc1)C1=C[C@H](C2CCCCC2)C[C@H](OCCCCO)O1 | inactive
3 | CN1CCC(OC(c2ccccc2)c2ccc(Cl)cc2)C1 (centres undefined) | inconclusive [inhibitor, partial curve, poor fit]
4 | COc1ccccc1N1CCN(S(=O)(=O)c2ccc(-c3ccc(=O)[nH]n3)o2)CC1 | inactive
5 | O=C1ON=C(c2ccc(Cl)c([N+](=O)[O-])c2)/C1=C/c1cccc([N+](=O)[O-])c1O | inactive
6 | Clc1ccc(CNc2nc(N3CCOCC3)nc(N3CCOCC3)n2)cc1 | inconclusive [inhibitor, full curve]
7 | Cc1ccc(S(=O)(=O)CC(=O)c2ccc([N+](=O)[O-])cc2)cc1 | inactive
8 | CC(C)(C)SCCNC(=O)Nc1ccccc1 | inactive
9 | CCOC(=O)c1ccc(NC(=O)N2C3CCCC2CC(NC(C)=O)C3)cc1 (centres undefined) | inconclusive [inhibitor, single point]
10 | Cc1cccc(NC(=O)c2ccc(S(=O)(=O)NCc3ccco3)cc2)n1 | inconclusive [inhibitor, single point]
11 | C=C(C)COc1ccc(-c2nc(N)ncc2-c2ccc(OC)c(OC)c2)c(O)c1 | inconclusive [inhibitor, single point]
12 | CCOc1cc(NC(=S)Nc2cccc(OC)c2)c(OCC)cc1NC(=O)c1ccc(C)cc1 | inconclusive [inhibitor, single point]
13 | CCOc1ccc(OCc2ccc(C(=O)N3CCc4ccccc4C3)o2)cc1 | inconclusive [inhibitor, partial curve]
14 | CC(C)CN1C(=O)/C(=C(/C#N)C(=O)NC2CCCCC2)c2ccccc21 | inconclusive [inhibitor, partial curve]
15 | C=CCn1c(SCC(=O)NCC2CCCO2)nc2scc(-c3ccco3)c2c1=O (centres undefined) | inconclusive [inhibitor, single point]
16 | NS(=O)(=O)c1ccc(N/N=C/C=C/c2ccccc2[N+](=O)[O-])cc1 | inconclusive [inhibitor, single point]
17 | Cc1cccc(Oc2nc(-c3ccccn3)nc3ccccc23)c1 | inconclusive [inhibitor, full curve]
18 | O=C(NC1CCCC1)C(c1ccc(Cl)cc1)N1CCc2ccccc21 (centres undefined) | inactive
19 | COc1ccc(OC)c(C2C=C(c3ccc(C)c(C)c3)Nc3nnnn32)c1 (centres undefined) | inconclusive [inhibitor, full curve, poor fit]
